Values of other authors, collected in paper PMC10714828, “Proteomic analysis of anti-MRSA activity of caerin 1.1/1.9 in a murine skin infection model and their in vitro anti-biofilm effects against Acinetobacter baumannii” (Microbiology Spectrum, 2023).

Conditions: cited from earlier work
Source text: Naturally derived host defense peptides form the first line against bacteria, protozoa, fungi, and virus infection ([16], [17]). Antimicrobial peptides (AMPs) have the advantage of multiple functions, such as inhibition of bacteria adhesion, wide spectrum of bacterial killing, quorum sensing, and the ability to inhibit the production of extracellular polymeric substances by bacteria ([18]). In addition, AMPs produce less bacterial resistance than conventional antibiotics, and may show activities against MDR bacterial strains ([19]). More than 200 host defense peptides have been isolated and id ...

Substance | heat stability
GLFGVLGSIAKHVLPHVVPVIAEKL-NH2 [F3] | heat resistant
GLLSVLGSVAKHVLPHVVPVIAEHL-NH2 [F1] | heat resistant
